# Experimental data as given in the supplement of paper PMC11417369.
# ± gives the standard deviation of the averaged measurements. The list shows a part of the results.
# Test system: PfAP2-G AP2 domain (GST-tagged)
# Assay: gcPBM binding intensity (ln(normalized median fluorescence intensity)); higher = stronger DNA binding
# Summary of the method: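 Binding intensity is defined as the maximum Masliner-normalised natural-log median intensity across replicate spots for either probe orientation. It was measured on an Agilent 4 × 180k array of primer-extended double-stranded 36-bp intergenic genomic probes and negative controls, to which GST-tagged P. falciparum DNA-binding domains made in E. coli were applied for 1 h in 1× PBS with 1% milk, 0.2 mg/ml BSA, 0.5% salmon testes DNA and 0.03% Triton X-100. Detection was by Alexa488 anti-GST antibody and scanning at 488 nm.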
row,Sequence,gcPBM binding intensity (ln)
1,TAAAAAATTATTAAACGTACGAGACTTTTTATCAGT [XGTACX_site2219],10.8 ± 0.45
2,TGTAGTCATTAGTCAAATTAGAATTAAATATATATT [GTGCAC_negctrl_site643],9.81 ± 0.2
3,TTTTCAGAAAAGAGAAACTTTATTTTTCACAACCGA [TGCATGCA_negctrl_site389],9.73 ± 0.11
4,ATTTTTTATGAAAATAAACACACGATTTATTATATA [CACACA_site1312],9.82 ± 0.13
5,ACAATATATTCATATTGTACATAAAATAAGGCTAAC [XGTACX_site6728],11.1 ± 0.59
6,CATAAAAATGGATACACACACATAATATATTTATAT [CACACA_site7669],10.33 ± 0.028
7,TATAGACAAACACATACATGCATACATACATACATA [TGCATGCA_site273],9.97 ± 0.071
8,AAAAAAAAGTTCTACACACACAAAAAAATATTTTTT [CACACA_site2309],9.93 ± 0.11
9,TAATTTTTATTTATAATAATATATGACATATATCCA [XGTACX_negctrl_site359],9.825 ± 0.078
10,TTTTATTCCTATTTATTTATATTTTTGTCTTATATC [CACACA_negctrl_site125],9.68 ± 0.18
11,TTAAGAATATCTACATGTACATACCAAAGAAATACA [XGTACX_site3125],11.3 ± 0.83
12,ATGAACAAAATGTAATGTACGAATAATTATTCATAT [XGTACX_site4812],10.9 ± 0.49
13,GGAATAATATAAAACACACACATAAATATAAATATA [CACACA_site3376],9.89 ± 0.13
14,TAATTTTTTTTTTTTTTTTTTTTTTTTTTTTTCCTT [CACACA_negctrl_site1095],9.535 ± 0.007
15,GTACACATATAATATACACACAACAAATATGCACAT [CACACA_site1010],11 ± 0.54
16,GTGTGCTTTTTACGAGTGCAAGTATTTTGGTGGTTA [GTGCAC_site9496],10.9 ± 0.53
17,TGTTTTGTATATATAGCATGCAGTAAGGGAAAAAAA [TGCATGCA_site652],10.2 ± 0.28
18,TAGTTATAAGAGTTACAAAGAATACCGGAAATATAG [CACACA_negctrl_site1829],10.3 ± 0.12
19,TCGTTTCATATTTATCATGAGATAATCACACGAACA [TGCATGCA_negctrl_site497],9.96 ± 0.11
20,AATACATATTCAAAGGTGCAAAATAAAAATATACAT [GTGCAC_site9743],10.2 ± 0.11
21,TTATAATAAGATTGTTGTACTTATATTCCTTCTATA [XGTACX_site3173],11.4 ± 0.97
22,AAGTATTATTATAAGACACACATGTATTTAAGTATA [CACACA_site4922],10.2 ± 0.29

row,Sequence,gcPBM binding intensity (ln)
1,AATGTCAATTTTAATAGTACACAAATATATATATAT [XGTACX_site521],11.3 ± 0.92
2,AATGACCATTTTTAAAATTACAAATACATACAACTG [TGCATGCA_negctrl_site420],10.7 ± 0.57
3,ATATAAATAAATTAGTGAAAAAAAAAAAATTTTTTT [CACACA_negctrl_site945],9.54 ± 0.36
4,ATATATAATAAATACACACACATGTATTTATAAATA [CACACA_site5135],10 ± 0.18
5,TGAATTATAAATTATAGTACTTTATAATATGAACAT [XGTACX_site2317],10.9 ± 0.53
6,ATAGAAATAAAATAAAATAAAAAAAAAATAATGAAA [CACACA_negctrl_site1565],9.66 ± 0.014
7,CTCCATATGAAACACACACACAAATGAAAAAAATAT [CACACA_site3018],10.1 ± 0.28
8,AATTAACAAAGACACACACACACACGCACAAAAAAA [CACACA_site6388],10.4 ± 0.42
9,TTTAAAAAAATATATACACACATATATATATATATA [CACACA_site617],9.94 ± 0.37
10,CATATATATATATATTGTACAAGATTGTTTTTTTAT [XGTACX_site3913],10.6 ± 0.32
11,ATGATCATAAGACACACACACAAAAAAAAAAAAAAA [CACACA_site6936],10.1 ± 0.52
12,CTATATACTAAATGCACACTTATATATTTATATATA [CACACA_site2454],10.1 ± 0.21
13,TATATTTTTTTAATATGTACATATATATATAAAACA [XGTACX_site2171],11.2 ± 0.79
14,TCTGTGCACGCATGAAGTACAAAAAAGGTTTCCAGT [XGTACX_site5049],11.3 ± 0.71
15,ATATATATATATATATGTACATATATTTATATTTAT [XGTACX_site6179],11.1 ± 0.56
16,GAATAATATGGACATACACACATATACATACAGATA [CACACA_site5200],11 ± 0.73
17,TTTCATTGGTTTATAAAATTATGAGATCTTAAAGAC [CACACA_negctrl_site1484],9.98 ± 0.13
18,TCTGTAAAGTAATGGACACACAATATATCCATTTAT [CACACA_site1536],10.8 ± 0.46
19,TTATATATCTATAATACACACATAATAATATATTTA [CACACA_site7423],9.97 ± 0.12
20,GCTACGTAAAAAATATGTACATATGAAATATTTTGC [XGTACX_site5111],11.2 ± 0.8
21,ATACATATATAAATACGTACATATATAATTATATAT [XGTACX_site8178],11.6 ± 0.93
22,AAATGAGAAGAAATACGTACATATAATAAAATAATT [XGTACX_site4439],11.5 ± 0.89
